This is one part of the list. The list includes weakly bound sequences.

The target in this assay is MaxL homodimer (UniProt P61244). The assay is described as follows: universal protein-binding microarray (PBM). The conditions noted are these: PBS-based mixture, 10 nM His-tagged protein dimer, 2% milk, 200 ng/uL BSA, 50 ng/uL salmon testes DNA, 0.02% TX-100; detection with Alexa 488 anti-His …; high values mean tight binding; most listed sequences are background and not binding sites; double strand, one strand shown.
Chain of UniProt P61244 (P61244 whole entry): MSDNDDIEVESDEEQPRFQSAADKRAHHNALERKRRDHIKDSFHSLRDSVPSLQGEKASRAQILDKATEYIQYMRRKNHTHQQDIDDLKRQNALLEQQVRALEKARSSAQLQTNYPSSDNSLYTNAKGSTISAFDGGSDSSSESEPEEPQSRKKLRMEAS
AACACCCC: the binding signal (normalized occupancy) amounted to 0.0827.

Regarding GAGCTCGC, the binding signal (normalized occupancy) was found to be 0.069.

For CGAACACA, the binding signal (normalized occupancy) came to 0.0775.

With GTGGGTGA, the binding signal (normalized occupancy) was determined as 0.0842.

With AATTCGAA, the binding signal (normalized occupancy) was 0.0751.

Regarding AGCAGAGC, the binding signal (normalized occupancy) is 0.0662.

For CGAGATCA, the binding signal (normalized occupancy) is 0.0751.

Turning to GGACAAAC, the binding signal (normalized occupancy) is 0.077.

Take AACTCCTA: the binding signal (normalized occupancy) amounted to 0.0732.

Turning to GAAAAGCC, the binding signal (normalized occupancy) turned out to be 0.0673.

On to AAACATAC, for which the binding signal (normalized occupancy) worked out at 0.0888.

Take CAGCCCAG: the binding signal (normalized occupancy) worked out at 0.0713.

As to CATGAATG, the binding signal (normalized occupancy) is 0.0895.

On to GCGCTACA, for which the binding signal (normalized occupancy) came to 0.0715.

With CACATGAA, the binding signal (normalized occupancy) was found to be 0.104.

For CATACTCG, the binding signal (normalized occupancy) was found to be 0.0813.

Consider GGCTGGAC, for which the binding signal (normalized occupancy) is 0.0689.

On to ACTGGGTG, for which the binding signal (normalized occupancy) stood at 0.0784.

Consider CACGACCC, for which the binding signal (normalized occupancy) was 0.0825.

For the sequence CTCGCCGA, the binding signal (normalized occupancy) came to 0.0701.

On to ATCCCTTA, for which the binding signal (normalized occupancy) is 0.0721.

CTATATAC: the binding signal (normalized occupancy) was 0.0879.

With ACCAATTA, the binding signal (normalized occupancy) is 0.074.

With AACTTTGT, the binding signal (normalized occupancy) worked out at 0.0751.

On to ATAAGATC, for which the binding signal (normalized occupancy) is 0.0786.

Consider AGTCCGCA, for which the binding signal (normalized occupancy) was found to be 0.0691.

As for CGCTAAAA, the binding signal (normalized occupancy) came to 0.0765.

Regarding ACCACAAG, the binding signal (normalized occupancy) is 0.0766.

In the case of AACTTCCC, the binding signal (normalized occupancy) is 0.0735.

With AGTAGTTG, the binding signal (normalized occupancy) is 0.0722.

As for AACAAGGT, the binding signal (normalized occupancy) was determined as 0.0753.

Regarding ATCGAGCA, the binding signal (normalized occupancy) turned out to be 0.0737.

As for AAAGGATA, the binding signal (normalized occupancy) is 0.0808.

Take CAAGATGG: the binding signal (normalized occupancy) was 0.0765.

For TCGGTAGA, the binding signal (normalized occupancy) is 0.0681.

CTATTGGA: the binding signal (normalized occupancy) was 0.0718.

With AAAACGGC, the binding signal (normalized occupancy) is 0.0699.

AGCTTGTG: the binding signal (normalized occupancy) stood at 0.0721.

As for GGACCTTA, the binding signal (normalized occupancy) came to 0.0769.

As to AAAATCAT, the binding signal (normalized occupancy) turned out to be 0.0769.

Take CCAGAACG: the binding signal (normalized occupancy) amounted to 0.0763.

As for AACAGCCG, the binding signal (normalized occupancy) is 0.0745.

For the sequence ACTACACC, the binding signal (normalized occupancy) was 0.0784.

Turning to GGCCAAAC, the binding signal (normalized occupancy) came to 0.0669.

For the sequence ACCGACCC, the binding signal (normalized occupancy) came out at 0.0764.

Consider ATATTTTA, for which the binding signal (normalized occupancy) is 0.0804.

As for GCCTTGTA, the binding signal (normalized occupancy) was found to be 0.0765.

Take AAGTTTTA: the binding signal (normalized occupancy) is 0.0709.

For the sequence CATGCTTC, the binding signal (normalized occupancy) is 0.106.

Regarding ATAATACG, the binding signal (normalized occupancy) worked out at 0.0771.

As to GGTGCTCA, the binding signal (normalized occupancy) turned out to be 0.0774.

Consider CGTCCCCC, for which the binding signal (normalized occupancy) amounted to 0.0763.

Regarding GGGGCCTA, the binding signal (normalized occupancy) was determined as 0.0764.

In the case of AAGTGAGG, the binding signal (normalized occupancy) was found to be 0.0763.

On to ACGTATCC, for which the binding signal (normalized occupancy) is 0.0826.

Consider CGCGATTA, for which the binding signal (normalized occupancy) was found to be 0.0731.

As for ATACCGAA, the binding signal (normalized occupancy) was 0.0724.

Take GAGGATCA: the binding signal (normalized occupancy) is 0.0709.

For ACCCGCCG, the binding signal (normalized occupancy) came out at 0.073.

For CATGCAGG, the binding signal (normalized occupancy) amounted to 0.097.

Consider CAGTAAGG, for which the binding signal (normalized occupancy) was 0.0715.

Regarding CGGTATAG, the binding signal (normalized occupancy) was 0.0773.

GCCGTCTA: the binding signal (normalized occupancy) amounted to 0.0699.

As to GGGCACAC, the binding signal (normalized occupancy) stood at 0.0814.

For ACCCTAGT, the binding signal (normalized occupancy) was found to be 0.0814.

As for CAGCTCAG, the binding signal (normalized occupancy) is 0.0738.

As to TATTCTAA, the binding signal (normalized occupancy) was found to be 0.0794.

In the case of GGGCCTTA, the binding signal (normalized occupancy) came to 0.0795.

On to CCACGAGG, for which the binding signal (normalized occupancy) stood at 0.182.

In the case of ACACTAGT, the binding signal (normalized occupancy) is 0.0808.

For the sequence ACACCCAC, the binding signal (normalized occupancy) is 0.0818.

Consider ATATAGAC, for which the binding signal (normalized occupancy) came out at 0.081.

In the case of AGTAATAT, the binding signal (normalized occupancy) amounted to 0.0804.

Take ACTTCCAG: the binding signal (normalized occupancy) came to 0.0719.

On to CCTAGCGA, for which the binding signal (normalized occupancy) stood at 0.0701.

Take GTATCCAC: the binding signal (normalized occupancy) is 0.0779.

GTTGAACA: the binding signal (normalized occupancy) was found to be 0.0747.

Consider AACTCGCT, for which the binding signal (normalized occupancy) was found to be 0.0727.

Regarding CTTGGATA, the binding signal (normalized occupancy) worked out at 0.0742.

AGATTGCT: the binding signal (normalized occupancy) came out at 0.0707.

CGCTCTAA: the binding signal (normalized occupancy) amounted to 0.0739.

For the sequence AAGCCAAA, the binding signal (normalized occupancy) came to 0.0681.

Consider TCTTAACA, for which the binding signal (normalized occupancy) is 0.0828.

For ATCACATC, the binding signal (normalized occupancy) came out at 0.0862.

Take CAAAGGGG: the binding signal (normalized occupancy) was found to be 0.0748.

AAGAGGCT: the binding signal (normalized occupancy) is 0.0725.

Turning to TAAAAGTA, the binding signal (normalized occupancy) amounted to 0.0741.

For AACAGGTT, the binding signal (normalized occupancy) was found to be 0.0777.

Consider TCTATCCA, for which the binding signal (normalized occupancy) stood at 0.0798.

Take TATCGCAA: the binding signal (normalized occupancy) was found to be 0.0727.

Turning to ATTAGGGA, the binding signal (normalized occupancy) was found to be 0.0744.

In the case of AAATAGAC, the binding signal (normalized occupancy) was 0.0765.

Take GATCCTTA: the binding signal (normalized occupancy) is 0.0763.

With ATCAGCAG, the binding signal (normalized occupancy) is 0.0784.

Regarding AGCATACT, the binding signal (normalized occupancy) stood at 0.0804.

Turning to TGTTTAAA, the binding signal (normalized occupancy) stood at 0.079.

CAGTGCGC: the binding signal (normalized occupancy) was found to be 0.0764.

As for AACGGAGC, the binding signal (normalized occupancy) was determined as 0.0727.

For ACAAATTG, the binding signal (normalized occupancy) is 0.0753.

In the case of AGAAGCAC, the binding signal (normalized occupancy) came out at 0.0778.

With GGGGAAAA, the binding signal (normalized occupancy) came out at 0.0738.

As for AGTCGGCA, the binding signal (normalized occupancy) turned out to be 0.0757.

For AACAAACA, the binding signal (normalized occupancy) stood at 0.0822.

Regarding CAAAGTTG, the binding signal (normalized occupancy) worked out at 0.0673.

Consider CGGCAATC, for which the binding signal (normalized occupancy) was 0.0716.

Regarding GAAGAAAA, the binding signal (normalized occupancy) worked out at 0.0726.

As for TCGCGTAA, the binding signal (normalized occupancy) amounted to 0.0735.

For AAGTGATT, the binding signal (normalized occupancy) was found to be 0.0761.

In the case of CACGTGAC, the binding signal (normalized occupancy) was determined as 0.464.

For GTTCGCTA, the binding signal (normalized occupancy) is 0.0757.

In the case of CCAGTATC, the binding signal (normalized occupancy) was found to be 0.0758.

For AAGTGCGT, the binding signal (normalized occupancy) amounted to 0.0808.

With CGCGGCTA, the binding signal (normalized occupancy) came out at 0.0695.

With ACCCCTAG, the binding signal (normalized occupancy) was 0.0748.

As for CGATTGCG, the binding signal (normalized occupancy) turned out to be 0.0733.

For the sequence CAGAACCA, the binding signal (normalized occupancy) is 0.0718.

In the case of TAATTATA, the binding signal (normalized occupancy) amounted to 0.0763.

Consider ATTATTAG, for which the binding signal (normalized occupancy) was determined as 0.0828.

For AATGCATC, the binding signal (normalized occupancy) is 0.0763.

With ATTAACAA, the binding signal (normalized occupancy) was determined as 0.0771.

Regarding CGTATTTA, the binding signal (normalized occupancy) stood at 0.0795.

GAGCTTAC: the binding signal (normalized occupancy) stood at 0.0705.

Consider AAAGAAGG, for which the binding signal (normalized occupancy) is 0.0766.

Turning to AGCTAAAT, the binding signal (normalized occupancy) came out at 0.0741.

Take GTTATTTA: the binding signal (normalized occupancy) worked out at 0.0809.

For the sequence ATCAAAGG, the binding signal (normalized occupancy) came out at 0.0751.

As for ATCGCCAA, the binding signal (normalized occupancy) came out at 0.0746.

Consider ATATAGCA, for which the binding signal (normalized occupancy) amounted to 0.0884.

Take ACAACCTC: the binding signal (normalized occupancy) amounted to 0.0799.

For CTCCGGAG, the binding signal (normalized occupancy) is 0.0721.

As to CCTATGAC, the binding signal (normalized occupancy) was 0.0778.

On to CGGTGCAG, for which the binding signal (normalized occupancy) was 0.0703.

Turning to CCATTCGA, the binding signal (normalized occupancy) was 0.0764.

Regarding ACCCGACA, the binding signal (normalized occupancy) worked out at 0.0733.

For CCTCAATC, the binding signal (normalized occupancy) was 0.0737.

Turning to CAACTGAG, the binding signal (normalized occupancy) is 0.0721.

As for AAACCTTA, the binding signal (normalized occupancy) was 0.0742.

As for ACGGAGGC, the binding signal (normalized occupancy) was 0.069.

Regarding TAGGGGCA, the binding signal (normalized occupancy) amounted to 0.084.

As for AATTGTTC, the binding signal (normalized occupancy) came out at 0.0726.

GACCTTAC: the binding signal (normalized occupancy) was 0.0765.

Consider AAGTCTCA, for which the binding signal (normalized occupancy) came to 0.0786.

ATTTAAAA: the binding signal (normalized occupancy) came to 0.0757.

Take CTGAAAGA: the binding signal (normalized occupancy) worked out at 0.073.

For the sequence ACTCGACG, the binding signal (normalized occupancy) worked out at 0.0745.

For CTTTGCCC, the binding signal (normalized occupancy) is 0.0688.

Turning to AAATCGCC, the binding signal (normalized occupancy) was found to be 0.0738.

In the case of GGATGTAC, the binding signal (normalized occupancy) was 0.0841.

Consider CACAGGCC, for which the binding signal (normalized occupancy) came out at 0.0715.

For ATCTGCTA, the binding signal (normalized occupancy) is 0.08.

Take CAGTTCGC: the binding signal (normalized occupancy) amounted to 0.072.

With AATACACT, the binding signal (normalized occupancy) is 0.0756.

Turning to CCGGCAGC, the binding signal (normalized occupancy) was 0.0744.

As to AACGCCTG, the binding signal (normalized occupancy) is 0.0733.

In the case of GTCTCTTA, the binding signal (normalized occupancy) was 0.0792.

Take GACGTCGC: the binding signal (normalized occupancy) was determined as 0.0783.

Regarding CATATCGA, the binding signal (normalized occupancy) amounted to 0.078.

For CAAGGTAC, the binding signal (normalized occupancy) worked out at 0.0675.

For the sequence TAGATTCA, the binding signal (normalized occupancy) was 0.0731.

Take GAGTACGC: the binding signal (normalized occupancy) came to 0.0747.

For ATGAAGGG, the binding signal (normalized occupancy) is 0.0755.

With CAGGGAGG, the binding signal (normalized occupancy) was determined as 0.0695.

Take CAGACAAG: the binding signal (normalized occupancy) was 0.0731.

As to CTTCGGCA, the binding signal (normalized occupancy) amounted to 0.0664.

Turning to AACCGAAA, the binding signal (normalized occupancy) was 0.0692.

In the case of AAACTCTC, the binding signal (normalized occupancy) was 0.073.

In the case of GCAGCGAC, the binding signal (normalized occupancy) came out at 0.0706.

For GCAATAAC, the binding signal (normalized occupancy) worked out at 0.0746.

Regarding ATCGTTCG, the binding signal (normalized occupancy) worked out at 0.0755.

ACATAACC: the binding signal (normalized occupancy) amounted to 0.0836.

Turning to TGTCCCAA, the binding signal (normalized occupancy) worked out at 0.0689.

For AAGCGATT, the binding signal (normalized occupancy) was found to be 0.0674.

Values taken from paper PMC4242493.
